# Test results published in the supplement of paper PMC8728848.
# The list shows a part of the results.
# Assays:
# Assay in all cases: glycan array binding signal (z-score within array); higher = stronger binding
# Settings in all cases: glycan notation: IUPAC condensed, linker removed
# [1] = target: Neu5Ac(a2-3)Gal(b1-4)GlcNAc(b1-3)Gal(b1-4)GlcNAc(b1-3)[Neu5Ac(a2-3)Gal(b1-4)GlcNAc(b1-3)Gal(b1-4)GlcNAc(b1-6)]GalNAc
# Method in brief: (§1)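 From the Consortium for Functional Glycomics database, 3228 arrays were curated, keeping only those whose protein sequence was available. Binding is given as a within-array Z-score averaged across arrays sharing a protein sequence and across linkers. Negative Z-scores can be read as non-binding.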
# [2] = target: Neu5Ac(a2-3)Gal(b1-4)GlcNAc(b1-3)Gal(b1-4)GlcNAc(b1-6)[Gal(b1-3)]GalNAc
# Method in brief: as §1
# [3] = target: Neu5Ac(a2-3)Gal(b1-4)GlcNAc(b1-3)Gal(b1-4)[Fuc(a1-3)]GlcNAc
# Method in brief: as §1
# [4] = target: Neu5Ac(a2-3)Gal(b1-4)GlcNAc(b1-3)GalNAc
# Method in brief: as §1
# [5] = target: Neu5Ac(a2-3)Gal(b1-4)GlcNAc(b1-3)[Neu5Ac(a2-3)Gal(b1-4)GlcNAc(b1-6)]GalNAc
# Method in brief: as §1
# [6] = target: Neu5Ac(a2-3)Gal(b1-4)GlcNAc(b1-6)GalNAc
# Method in brief: as §1
# [7] = target: Neu5Ac(a2-3)Gal(b1-4)GlcNAc(b1-6)[Gal(b1-3)]GalNAc
# Method in brief: as §1
# [8] = target: Neu5Ac(a2-3)Gal(b1-4)GlcNAc(b1-6)[Neu5Ac(a2-3)Gal(b1-3)]GalNAc
# Method in brief: as §1
# [9] = target: Neu5Ac(a2-3)Gal(b1-4)GlcNAc6S
# Method in brief: as §1
# [10] = target: Neu5Ac(a2-3)Gal(b1-4)[Fuc(a1-3)]GlcNAc
# Method in brief: as §1
# [11] = target: Neu5Ac(a2-3)Gal(b1-4)[Fuc(a1-3)]GlcNAc(b1-2)Man
# Method in brief: as §1
# [12] = target: Neu5Ac(a2-3)Gal(b1-4)[Fuc(a1-3)]GlcNAc(b1-3)Gal
# Method in brief: as §1
# [13] = target: Neu5Ac(a2-3)Gal(b1-4)[Fuc(a1-3)]GlcNAc(b1-3)Gal(b1-4)GlcNAc
# Method in brief: as §1
# [14] = target: Neu5Ac(a2-3)Gal(b1-4)[Fuc(a1-3)]GlcNAc(b1-3)Gal(b1-4)[Fuc(a1-3)]GlcNAc(b1-3)Gal(b1-4)[Fuc(a1-3)]GlcNAc
# Method in brief: as §1
# [15] = target: Neu5Ac(a2-3)Gal(b1-4)[Fuc(a1-3)]GlcNAc(b1-3)GalNAc
# Method in brief: as §1
# [16] = target: Neu5Ac(a2-3)Gal(b1-4)[Fuc(a1-3)]GlcNAc(b1-6)[Gal(b1-3)]GalNAc
# Method in brief: as §1
# [17] = target: Neu5Ac(a2-3)Gal(b1-4)[Fuc(a1-3)]GlcNAc(b1-6)[Neu5Ac(a2-3)Gal(b1-3)]GalNAc
# Method in brief: as §1
# [18] = target: Neu5Ac(a2-3)Gal(b1-4)[Fuc(a1-3)]GlcNAc6S
# Method in brief: as §1
# [19] = target: Neu5Ac(a2-3)Gal6S(b1-4)GlcNAc
# Method in brief: as §1
# [20] = target: Neu5Ac(a2-3)Gal6S(b1-4)[Fuc(a1-3)]GlcNAc
# Method in brief: as §1
# Neu5Ac(a2-3)GalNAc = target: Neu5Ac(a2-3)GalNAc
# Method in brief: as §1
# [21] = target: Neu5Ac(a2-3)GalNAc(b1-4)GlcNAc
# Method in brief: as §1
# [22] = target: Neu5Ac(a2-3)[GalNAc(b1-4)]Gal(b1-4)Glc
# Method in brief: as §1
# [23] = target: Neu5Ac(a2-3)[GalNAc(b1-4)]Gal(b1-4)GlcNAc
# Method in brief: as §1
# [24] = target: Neu5Ac(a2-3)[GalNAc(b1-4)]Gal(b1-4)GlcNAc(b1-3)GalNAc
# Method in brief: as §1
# [25] = target: Neu5Ac(a2-3)[Neu5Ac(a2-6)]GalNAc
# Method in brief: as §1
# Neu5Ac(a2-6)Gal = target: Neu5Ac(a2-6)Gal
# Method in brief: as §1
# [26] = target: Neu5Ac(a2-6)Gal(b1-3)GlcNAc(b1-3)[Gal(b1-4)GlcNAc(b1-6)]Gal(b1-4)Glc
# Method in brief: as §1
# Neu5Ac(a2-6)Gal(b1-4)Glc = target: Neu5Ac(a2-6)Gal(b1-4)Glc
# Method in brief: as §1
# [27] = target: Neu5Ac(a2-6)Gal(b1-4)GlcNAc
# Method in brief: as §1
# [28] = target: Neu5Ac(a2-6)Gal(b1-4)GlcNAc(b1-2)Man
# Method in brief: as §1
# [29] = target: Neu5Ac(a2-6)Gal(b1-4)GlcNAc(b1-2)Man(a1-3)Man(b1-4)GlcNAc(b1-4)GlcNAc
# Method in brief: as §1
# [30] = target: Neu5Ac(a2-6)Gal(b1-4)GlcNAc(b1-2)Man(a1-3)[Gal(b1-4)GlcNAc(b1-2)Man(a1-6)]Man(b1-4)GlcNAc(b1-4)GlcNAc
# Method in brief: as §1
# [31] = target: Neu5Ac(a2-6)Gal(b1-4)GlcNAc(b1-2)Man(a1-3)[GlcNAc(b1-2)Man(a1-6)]Man(b1-4)GlcNAc(b1-4)GlcNAc
# Method in brief: as §1
# [32] = target: Neu5Ac(a2-6)Gal(b1-4)GlcNAc(b1-2)Man(a1-3)[GlcNAc(b1-2)Man(b1-4)GlcNAc(b1-2)Man(a1-6)]Man(b1-4)GlcNAc(b1-4)GlcNAc
# Method in brief: as §1
# [33] = target: Neu5Ac(a2-6)Gal(b1-4)GlcNAc(b1-2)Man(a1-3)[GlcNAc(b1-4)][Neu5Ac(a2-6)Gal(b1-4)GlcNAc(b1-2)Man(a1-6)]Man(b1-4)GlcNAc(b1-4)GlcNAc
# Method in brief: as §1
# [34] = target: Neu5Ac(a2-6)Gal(b1-4)GlcNAc(b1-2)Man(a1-3)[Man(a1-6)]Man(b1-4)GlcNAc(b1-4)GlcNAc
# Method in brief: as §1
binder,measurement,setting,value
"MAL-II (Maackia amurensis), P93248 (protein) ATSNSKPTQVLLATFLTFFFLLLNNVNSSDELSFTINNFVPNEADLLFQGEASVSSTGVLQLTRVENGQPQQYSVGRALYAAPVRIWDNTTGSVASFSTSFTFVVKAPNPTITSDGLAFFLAPPDSQIPSGRVSKYLGLFNNSNSDSSNQIVAVEFDTYFGHSYDPWDPNYRHIGIDVNGIESIKTVQWDWINGGVAFATITYLAPNKTLIASLVYPSNQTSFIVAASVDLKEILPEWVRVGFSAATGYPTQVETHDVLSWSFTSTLEANSDAATENNVHIARYTA",glycan array binding signal (z-score),[1],-0.118
same,glycan array binding signal (z-score),[2],0.212
same,glycan array binding signal (z-score),[3],-0.221
same,glycan array binding signal (z-score),[4],-0.131
same,glycan array binding signal (z-score),[5],-0.187
same,glycan array binding signal (z-score),[6],-0.212
same,glycan array binding signal (z-score),[7],-0.208
same,glycan array binding signal (z-score),[8],3.13
same,glycan array binding signal (z-score),[9],-0.215
same,glycan array binding signal (z-score),[10],-0.189
same,glycan array binding signal (z-score),[11],-0.201
same,glycan array binding signal (z-score),[12],-0.237
same,glycan array binding signal (z-score),[13],-0.186
same,glycan array binding signal (z-score),[14],-0.182
same,glycan array binding signal (z-score),[15],-0.118
same,glycan array binding signal (z-score),[16],0.76
same,glycan array binding signal (z-score),[17],0.889
same,glycan array binding signal (z-score),[18],-0.218
same,glycan array binding signal (z-score),[19],-0.224
same,glycan array binding signal (z-score),[20],-0.22
same,glycan array binding signal (z-score),Neu5Ac(a2-3)GalNAc,-0.313
same,glycan array binding signal (z-score),[21],-0.209
same,glycan array binding signal (z-score),[22],-0.247
same,glycan array binding signal (z-score),[23],-0.213
same,glycan array binding signal (z-score),[24],0.272
same,glycan array binding signal (z-score),[25],-0.272
same,glycan array binding signal (z-score),Neu5Ac(a2-6)Gal,-0.234
same,glycan array binding signal (z-score),[26],-0.18
same,glycan array binding signal (z-score),Neu5Ac(a2-6)Gal(b1-4)Glc,-0.184
same,glycan array binding signal (z-score),[27],-0.142
same,glycan array binding signal (z-score),[28],-0.102
same,glycan array binding signal (z-score),[29],-0.2
same,glycan array binding signal (z-score),[30],-0.171
same,glycan array binding signal (z-score),[31],-0.15
same,glycan array binding signal (z-score),[32],-0.187
same,glycan array binding signal (z-score),[33],-0.283
same,glycan array binding signal (z-score),[34],-0.172
